Hit rate of the full screen: of about 48,000 compounds, about 120 (0.25%) were called active. Roughly 4% stayed inconclusive and do not appear here. Calls follow the shape of the dose curve; as a rule, active = well fitted activation curve with a large enough effect; inconclusive = small, poorly fitted or top-dose-only effect, or another doubt; inactive = no such curve, though single readings can be large or run the other way. Some of the results follow.
assay: Primary qHTS for Identification of Small Molecule Activators of Huntingtin-Antisense Promoter Activity; conditions: HEK293 HTT-AS promoter firefly luciferase reporter (activity 0% = vehicle and -100% = no light), 24 h; series mostly up to 57.5 µM; activity change, positive = activation: at the top concentration; also: nearly all actives have a fitted effect of over 55% in size
Summary of the method: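 HEK293 luciferase promoter-reporter cells (2,500/well) plated 24 h, then compounds added at up to 57.5 uM final for 24 h at 37 °C. Firefly luminescence by Dual-Glo, normalized to vehicle (0%) and zero RLU (-100%).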

Activity change, positive = activation, inactive:
Cc1ccc(CCNC(=O)c2cc3c(s2)-c2ccccc2OC3)cc1 -34.3%
NCCNCCNCCN 0.926%
CCCn1c(=N)c(C(=O)NC2CCCC2)cc2c(=O)n3cc(C)ccc3nc21 -0.456%
c1ccc(-c2cc(-c3ccccc3)c3c(n2)-c2ccccc2OC3)cc1 -10.6%
Cc1nc2ccc(S(=O)(=O)NC(C(=O)NCc3ccccc3Cl)C(C)C)cc2s1 (stereo not drawn) -10.6%
CC1CCN(S(=O)(=O)c2ccc3c(c2)N(CC(=O)NCc2ccccc2Cl)C(=O)CS3)CC1 -39.2%
COc1ccc(C(c2c(C)n(C)n(-c3ccccc3)c2=O)c2c(C)n(C)n(-c3ccccc3)c2=O)cc1O -14.3%
CCOc1cccc2sc(N(Cc3cccnc3)C(=O)c3ccco3)nc12 -10.9%
COc1cc(OC)c(NC(=O)Nc2nnc(N(C)C3CCCCC3)s2)cc1Cl -3.62%
COc1ccc(-c2cc3c(=O)n(CC(=O)Nc4ccccc4C(F)(F)F)ccn3n2)cc1OC 1.91%
CC(=O)c1ccc(NC(=O)CN(C)S(=O)(=O)c2cc3c(cc2C)NC(=O)CO3)cc1 -14.9%
CC1CCN(CC(=O)N2CCCc3c2c(=O)oc2ccc(OCc4ccccc4)cc32)CC1 1.34%
Cc1c(C(=O)Nc2ccc(Br)cc2F)oc2ccc(S(=O)(=O)N3CCCCC3)cc12 -3.62%
CC1(C(=O)Nc2cccc(C(F)(F)F)c2)Cc2ccccc2C(=O)O1 (stereo not drawn) -12.6%
CC1=C(C(=O)Nc2c(C)cc(C)cc2C)C2(CCN(C(C)C)CC2)OC1=O -8.24%
CC1=C(C(=O)Nc2cccc(C)c2C)C2(CCCCC2)OC1=O -4.33%
COc1ccc(CCNC(=O)c2cnc3sc(N4CCCCCC4)nn3c2=O)cc1OC -0.865%
CCOCCCNC(=O)C(c1ccc(OC)cc1)N(Cc1cccs1)C(=O)c1ccccc1O (stereo not drawn) -1.26%
CC(C)CCN1C(=O)N(c2ccccc2)C(=O)C1CC(=O)Nc1ccc(Cl)cc1 (stereo not drawn) -17.2%
COc1ccccc1N1CCN(CCCNC(=O)c2cnn(-c3ccccc3Cl)c2C2CCN(C(=O)OC(C)(C)C)CC2)CC1 -21.6%
CC(C)NC(=O)CSc1nc2ccccc2nc1N1CCCCC1 -23.5%
Cc1ccc(Sc2ccc(N3CCCC(C(=O)Nc4ccc(Cl)cc4)C3)nn2)cc1 (stereo not drawn) -28.6%
CCn1c(SC)nc2c([nH]c3ccccc32)c1=O -2.93%
COc1ccc(CNC(=O)c2ccc3c(c2)N=C(C)c2c(C)ccc(C)c2S3)cc1 -45%
Cc1cc(C)cc(NC(=O)CC(C)n2nc(C)cc2C)c1 (stereo not drawn) -19.1%
CCN(CC)c1ccc(NC(=O)CN2CCN(S(=O)(=O)c3ccc(C(C)C)cc3)CC2)cc1 -35.5%
O=C(Cn1ccc2cc(S(=O)(=O)N3CCCC3)ccc21)NCc1ccc(Cl)cc1 -39.6%
COc1cc(NC(=O)Cn2c(=O)n(Cc3ccccc3)c(=O)c3oc4ccccc4c32)cc(OC)c1 -13.3%
O=C(Nc1ccc(F)cc1)C1CCN(c2nc3ccccc3nc2C(F)(F)F)CC1 12.5%
COc1ccc(-c2noc(CC(=O)N(C)c3ccccc3F)n2)cc1 -4.88%
Cc1nc(N2CCOCC2)c2c(C(=O)N3CCN(c4cc(Cl)ccc4C)CC3)c(C)oc2n1 6%
CCOc1c(CC2C(=O)Nc3ccc(Br)cc32)cccc1OC (stereo not drawn) -42.3%
O=C(CN1C(=O)C2CCCCN2c2ccc(C(=O)N3CCCC3)cc21)NCc1ccc(F)cc1 (stereo not drawn) -12%
CCOc1ccccc1CNc1ncnc2onc(-c3ccc(F)cc3)c12 -25.6%
CCCNC(=O)CN1C(=O)COc2ccc(S(=O)(=O)N3CCCC3)cc21 -6.45%
CCN1CCC(N(Cc2ccc(F)cc2)C(=O)Nc2cc(C)ccc2C)CC1 -12.7%
COc1ccc(-n2cc(C(=O)NCCc3ccc(C)cc3)c3ccccc3c2=O)cc1 -24.3%
CC1CCCCN1C(=O)CSc1nc2ccccc2nc1Cc1ccccc1 (stereo not drawn) -39.5%
COC(=O)c1ccc(C2CC(=O)Nc3c2c(C)nn3-c2nc(C)cc(C)n2)cc1 (stereo not drawn) -14.7%
CCOc1ccc(N2C(=O)c3[nH]nc(-c4ccccc4)c3C2c2ccc(O)c(OC)c2)cc1 (stereo not drawn) -32.8%
O=C(Nc1ccc(S(=O)(=O)Nc2ncccn2)cc1)c1cccc(Cl)c1 0.739%
O=C(NCCN1CCOCC1)c1ccc(Cl)cc1 4.62%
COc1ccc(OC)c(NC(=O)Cn2nc3c(cc2=O)CCCC3)c1 -21.9%
COc1ccc(CCNS(=O)(=O)c2ccc3c(c2)c(=O)n(C)c(=O)n3C)cc1OC 12.6%
Cc1cc(Cl)ccc1OCCCC(=O)NO -34.4%
Cc1ccc(NC(=O)c2nc(S(C)(=O)=O)ncc2N(Cc2cccc(F)c2)Cc2ccco2)cc1C -23.2%
NS(=O)(=O)c1ccc(NC(=O)c2cc(-c3cccs3)nc3ccccc23)cc1 -39%
Cc1ccc(NC(=O)CCCc2nnc3n(C)c(=O)c4sccc4n23)cc1C 2.72%
COc1ccc(NC(=O)C2=C(C)Nc3nc(SCc4ccc(C)cc4C)nn3C2c2cccc(OC)c2OC)cc1 (stereo not drawn) -0.316%
Cc1[nH]c(=O)[nH]c(=O)c1S(=O)(=O)Nc1cccc(Cl)c1C -1.1%
CNC(=O)c1ccc(Nc2cc(Nc3ccccc3S(=O)(=O)C(C)C)c3cc[nH]c3n2)nc1 -37.3%
COc1cc(-c2ccno2)ccc1S(=O)(=O)N1CCN(c2cccc(Cl)c2)CC1 -35.4%
CCOc1ccc(CNC(=O)Cn2nc(C)c3nn(-c4ccc(Cl)cc4)c(C)c3c2=O)cc1 -2.64%
Cc1oc2ncnc(N3CCCCC3)c2c1C(=O)NCC1CCN(Cc2ccccc2F)CC1 -1.47%
Cc1ccc(CNC(=O)c2oc3ccc(S(=O)(=O)N4CCCC(C)C4)cc3c2C)cc1 (stereo not drawn) -26.4%
COc1ccccc1NC(=O)c1sc2nc(-c3cc4cc(Cl)ccc4oc3=O)[nH]c(=O)c2c1C 0.199%
O=c1[nH]c(=O)n([C@H]2C[C@@H](O)[C@@H](CO)O2)cc1F -35.7%
CCCCCN1C(C(=O)c2ccccc2)=C(NC(=O)c2ccc(OC)c(OC)c2)c2ccccc2S1(=O)=O -15.9%
COc1ccc(C)cc1NC(=O)CSc1nc(=O)n(Cc2cccnc2)c2c1CCC2 -25.9%
COC(=O)c1ccccc1NC(=O)CSc1cc(-c2ccccc2)nc(C)n1 -22.8%
COc1ccc(NC(=O)N2CCC(CN3CCCC3)CC2)c(OC)c1 -2.88%
O=C(CCn1c(=O)c2cccn2c2ccc(F)cc21)NCCc1ccc(Cl)cc1 -14.8%
O=C(C1CCCN(S(=O)(=O)c2cccc3nonc23)C1)N1CCN(c2ccccc2F)CC1 (stereo not drawn) -22.4%
Clc1ccc(-c2ccc(CNCCSc3nnnn3-c3ccccc3)o2)cc1 0.27%
CCN1CCN(c2oc(-c3ccc(COc4ccc(OC)cc4)o3)nc2C#N)CC1 -19.8%
CC(C)(C)OC(=O)N1CCC(c2c(C(=O)NCCN3CCOCC3)cnn2-c2cccc(F)c2)CC1 -4.39%
CC(=O)c1ccc(N2C(=O)N(Cc3ccc(F)cc3)c3ccccc3S2(=O)=O)cc1 -31.1%
COc1ccc(C2(CNC(=O)C(=O)Nc3ccc(C)c(Cl)c3)CCCC2)cc1OC 5.81%
COc1c(C)c2c(c(O)c1C/C=C(\C)CCC(=O)O)C(=O)OC2 -31.5%
CCN(CC)S(=O)(=O)c1nnc(NC(=O)COc2ccccc2)s1 -3.62%
Clc1cccc(-n2ncc3c(NCCC4=CCCCC4)ncnc32)c1 12.4%
COc1ccc(OC)c(C(=O)CN2C(=O)N(c3cc(C)cc(C)c3)S(=O)(=O)c3ccccc32)c1 -22.6%
Cc1ccc(S(=O)(=O)c2cn(C)c3cc(N4CCOCC4)c(F)cc3c2=O)c(C)c1 -17.4%
COc1ccc(N2CCN(c3ncnc4c3nc3n4CCCCC3)CC2)cc1 -55.4%
Oc1c(C(c2ccc(F)cc2)N2CCCC2)sc2nc(-c3ccco3)nn12 (stereo not drawn) -7.83%
Cc1ccc(CCNC(=O)C2COc3ccccc3C2)cc1 (stereo not drawn) 23.2%
O=C(Oc1ccccc1C(=O)O)c1ccccc1O -2.1%
Cc1ccc(Cl)cc1-n1c(=O)c2sc3ccccc3c2n(CC(=O)NC2CCCC2)c1=O -22.3%
Cc1ccc2c(c1)-c1onc(C(=O)N3CCN(c4cc(C)ccc4C)CC3)c1CO2 -7.82%
O=C(O)c1ccc(S(=O)(=O)N(Cl)Cl)cc1 -0.253%
Cc1cc(C)n(-c2nc3cc(Cl)ccc3nc2N2CCN(c3cccc(C)c3C)CC2)n1 -10.2%
COc1ccccc1CNS(=O)(=O)c1c(C(=O)N2CCC(C)CC2)c(C)n(C)c1C -15.3%
Cc1ccc(CCNC(=O)Cn2ncc3c([nH]c4ccccc43)c2=O)cc1 -10.1%
COc1ccc(CC(=O)Nc2c(C(=O)N3CCN(c4ccccc4F)CC3)oc3ccccc23)cc1OC -29.2%
COc1ccc(-c2nc3ccccc3o2)cc1NC(=O)c1ccc(-c2ccc(C)c(Cl)c2)o1 -8.45%
CCN(C(=O)c1cc2c(=O)oc3ccccc3c2s1)c1cccc(C(F)(F)F)c1 -22.2%
Cc1ccc(Nc2c(-c3ccco3)nc3ccc(C)cn23)cc1 -8.41%
CCOc1ccc(OCC)c(Nc2nc3ccccc3n3nnnc23)c1 -8.67%
O=C(CN1C=NS(=O)(=O)c2ccccc21)Nc1ccc(Br)cc1 -5.16%
Cc1ccccc1CNC(=O)CCCn1ncn2c(cc3occc32)c1=O -8.21%
O=C1C2=C(Nc3ccccc3SC2c2ccc(C(F)(F)F)cc2)c2ccccc21 (stereo not drawn) -38.8%
COc1ccc(NC(=O)CSC2=Nc3ccccc3C3=NC(Cc4ccccc4)C(=O)N23)cc1 (stereo not drawn) 3.54%
COCCNC(=O)c1ccc2c(c1)NC(=O)C(CS(=O)(=O)Cc1ccc(F)cc1Cl)N2 (stereo not drawn) -6.91%
COc1ccc(NC(=O)c2c(NC(=O)c3cccc(C)c3)sc3c2CCC3)cc1 -2.2%
COc1cccc(CNC(=O)c2ccc3oc(=O)n(Cc4ccccc4)c3c2)c1 -22.7%
NS(=O)(=O)c1cc(Cl)c(Cl)c(S(N)(=O)=O)c1 -8.56%
Cc1ccc(NC(=O)CSc2nnc(C)s2)c(C)c1 -11.4%
COc1ccc(NC(=O)C2CCN(c3nc4ccccc4[nH]3)CC2)cc1OC -11.4%
